# Measurements: PubChem BioAssay (Tox21)
# Values joined by “and” are separate entries in the source; they are usually repeats but may differ in a detail not shown here. Equal values may be shown once. The shares of active, inactive and inconclusive entries below differ from those in the screen. A potency beside an inconclusive call is a rough fit, not a confirmed value. Active and inactive are the calls of the source. Calls come from the whole dose curve; as a rule, active = well fitted cell-killing curve with a large enough effect in the repeat runs; inconclusive = weak or mixed curves, or effect the other way; inactive = no such curve, though single readings can be large or run the other way.
# Test: qHTS assay to identify small molecule agonists of the RXR signaling pathway - cell viability counter screen (AID 1159529); note: nearly all actives have a fitted effect of over 50% in size;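 for activity change, negative = cytotoxicity: HEK 293T cells carrying an RXR-alpha UAS beta-lactamase reporter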
# Settings: RXR-alpha-bla HEK293T viability, CellTiter-Glo, 16 h; series mostly up to 76.8 µM; activity change, negative = cytotoxicity: at the top concentration
# Procedure, shortened: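 Counter screen: CellTiter-Glo luminescence. Cells: RXR-alpha-UAS-bla HEK 293T. Medium: 2% charcoal-stripped FBS. Treatment: 16 h, 37 C. Reagent incubation: 30 min, RT.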
# % is set by controls: 0 for no effect and ±100 for the full control effect; potency is the fitted concentration of half-maximal effect; tags give direction and shape of the fitted curve.
Structure (SMILES),Potency,"activity change, negative = cytotoxicity"
CO[C@@H]1[C@@H](O[C@@H]2O[C@H](C)[C@@H](O[C@H]3C[C@@](C)(O)[C@@H](O)[C@H](C)O3)[C@H](N(C)C)[C@H]2O)[C@@H](CC=O)C[C@@H](C)[C@@H](O[C@@H]2CC[C@H](N(C)C)[C@@H](C)O2)/C=C/C=C/C[C@@H](C)OC(=O)C[C@H]1OC(C)=O,"inconclusive: 7.56 µM [cytotoxic, full curve]",–
CCCCOc1cc(C(=O)NCCN(CC)CC)c2ccccc2n1,"inconclusive: 4.77 µM [cytotoxic, full curve]",–
CCN(CCO)c1cccc(C)c1,–,inactive: -16%
NC(=O)C1CO1 (centres undefined),"inconclusive: 0.0039 µM [rising, full curve, poor fit]",–
NCCCOCCOCCOCCCN,"inconclusive: 38.9 µM [cytotoxic, partial curve]",–
CCCCC(=O)OCC(=O)[C@H]1[C@H](C)C[C@H]2[C@@H]3C[C@H](F)C4=CC(=O)C=C[C@]4(C)[C@@]3(F)[C@@H](O)C[C@@]21C,"inconclusive: 6.74 µM [cytotoxic, partial curve, poor fit]",–
CCOC(=O)Cn1c(=O)sc2cccc(Cl)c21,–,inactive: -6.1%
C=CC[N+]1([C@H]2C[C@H]3[C@@H]4CC[C@H]5C[C@H](OC(C)=O)[C@@H](N6CCCCC6)C[C@]5(C)[C@H]4CC[C@]3(C)[C@H]2OC(=O)CC)CCCCC1,"inconclusive: 12 µM [cytotoxic, partial curve, poor fit]",–
COc1cc2c(Nc3ccc(Br)cc3F)ncnc2cc1OCC1CCN(C)CC1,–,inactive: 0.674% [at 35.3 µM]
CCCCC(CC)COC(=O)CS (centres undefined),inactive,–
CC(C)c1cccc(O)c1,–,inactive: -0.0314%
CC1(C)[C@H]2CC[C@]1(C)[C@H](O)C2,–,inactive: 16.7%
CN(C)CCN(Cc1ccc(Cl)cc1)c1ccccn1,"inconclusive: 23.9 µM [cytotoxic, partial curve]",–
CC1CC(=O)NN=C1c1ccc(NCC(C)(C)NCC(O)COc2cc(Cl)ccc2C#N)cc1 (centres undefined),"inconclusive: 9.52 µM [cytotoxic, partial curve, poor fit]",–
COc1cc(N)ccc1C,–,inactive: 1.14%
CCCCCCCCCCCCCCCCOS(=O)(=O)O,"inconclusive: 21.3 µM [cytotoxic, partial curve]",–
CCCC(C)C,"inconclusive: 44.1 µM [cytotoxic, partial curve]",–
CC(CCO)CCc1ccccc1 (centres undefined),–,inactive: 9.57%
CSc1ccc(Oc2ccc(S(N)(=O)=O)cc2CN(C)C)cc1C,"inconclusive: 12.3 µM [cytotoxic, partial curve]",–
c1ccc(CN(Cc2ccccc2)Cc2ccccc2)cc1,"inconclusive: 19.5 µM [cytotoxic, partial curve]",–

Structure (SMILES),Potency,"activity change, negative = cytotoxicity"
c1ccc2c(c1)ccc1ccccc12,"inconclusive: 13.8 µM [cytotoxic, partial curve, poor fit]",–
C[C@H]1C[C@@H]2[C@H]([C@@H](O)C[C@@]3(C)[C@H]2CC[C@]3(O)C(=O)CO)[C@@]2(C)C=CC(=O)C=C12,"inconclusive: 24.5 µM [cytotoxic, partial curve, poor fit]",–
CC(=O)Oc1cccc(C)c1,–,inactive: 2.62% [at 35.3 µM]
N#Cc1ccc(C/C(=N/NC(=O)Nc2ccc(OC(F)(F)F)cc2)c2cccc(C(F)(F)F)c2)cc1,"inconclusive: 21.9 µM [cytotoxic, partial curve]",–
CNNCc1ccc(C(=O)NC(C)C)cc1,"inconclusive: 61.6 µM [cytotoxic, partial curve, poor fit] and inconclusive: 195 nM [cytotoxic, single point]",–
NC[C@H]1O[C@H](O[C@H]2[C@H](O)[C@@H](O[C@H]3O[C@H](CO)[C@@H](O)[C@H](N)[C@H]3O)[C@H](N)C[C@@H]2N)[C@H](N)[C@@H](O)[C@@H]1O,–,inactive: 3.13% [at 15.8 µM]
O=S(=O)(O)c1ccc2ccccc2c1,"inconclusive: 34.8 µM [cytotoxic, partial curve]",–
CCOC(=O)[C@H](C)O,"inconclusive: 0.0028 µM [cytotoxic, partial curve, poor fit]",–
S=C([S-])NCCNC(=S)[S-].[Mn+2],"inconclusive: 15.5 µM [rising, partial curve]",–
O=C(O)c1ccc2c(c1)nc(C(=O)NC1CCN(C3CC3)CC1)n2Cc1cc(-c2ccc(Cl)s2)on1,"inconclusive: 14 µM [cytotoxic, partial curve, poor fit]",–
COC(=O)c1ccccc1C(=O)c1ccc(OCCN2CCCCC2)cc1,–,inactive: -13.5% [at 35.3 µM]
CCN(CCCCOC(=O)c1ccc(OC)c(OC)c1)C(C)Cc1ccc(OC)cc1 (centres undefined),"inconclusive: 8.49 µM [cytotoxic, partial curve, poor fit]",–
CCN1CCCC1CNC(=O)c1cc(S(N)(=O)=O)ccc1OC (centres undefined),"inconclusive: 34.7 µM [cytotoxic, partial curve]",–
O=S(=O)(O)c1cc(Cl)c(Cl)cc1Cl,–,inactive: -22.9%
OCC(CBr)(CBr)CBr,–,inactive: -6.39%
C/C(=C\c1ccc(C(=O)O)cc1)c1ccc2c(c1)C(C)(C)CCC2(C)C,–,inactive: 7.81% [at 35.3 µM]
Oc1ccc(Nc2ccccc2)cc1,active: 30.9 µM,–
Cc1ccc(C(=O)C(C)CN2CCCCC2)cc1 (centres undefined),–,inactive: -10.6% [at 35.3 µM]
CCCCc1ccc(N)cc1,–,inactive: -0.887%
